# Laboratory results reported in PubChem BioAssay AID463173 (ICCB-Longwood Screening Facility, Harvard Medical School, 2010).
# Out of some 52,000 compounds screened, about 4,300 (8.3%) were called active. Rule as the data show it: active = survival mostly below about 52% (no sharp cut-off); inactive = mostly above about 56%. The list shows a part of the results.
# Tested on: DeltatarO mutant
# Assay: growth inhibition of S. aureus wild type versus tarO mutant, primary screen, teichoic acid synthesis inhibitors, RN4220, OD600 (AID 463173)
# Details: OD600, 18 h, active compounds read low, screened at 18.75 µg/mL (by protocol)
row,Compound,survival
1,Cc1cccc(CN2C(=O)c3ccccc3S(=O)(=O)c3ccc(C(=O)N4CCCC4)cc32)c1,inactive: 72%
2,CCc1ccc(OCC(=O)Nc2c(C(=O)c3ccccc3)oc3ccccc23)cc1,inactive: 66%
3,CN(C)c1ccc(C(C(=O)NCC2CCCO2)N(C(=O)Cn2nnc3ccccc32)c2ccc3c(c2)OCO3)cc1 (stereo unspecified),inactive: 90%
4,Cc1ccccc1NC(=O)CCc1c(C)nc2c(c1C)c(=O)n(C)c(=O)n2C,inactive: 100%
5,COC(=O)/C=C1/C(=O)N(C(C)=O)c2ccccc21,inactive: 90%
6,CCCN(C(=O)Cn1cnc2sc(C)c(S(=O)(=O)N3CCN(c4ncccn4)CC3)c2c1=O)c1cccc(C)c1,inactive: 84%
7,Cc1cc(C)cc(N(C)S(=O)(=O)c2nnc(NC(=O)COc3ccc(Cl)cc3)s2)c1,inactive: 80%
8,CC(=O)c1cccc(NC(=O)CN2C(=O)CN(C)C(=O)c3ccccc32)c1,inactive: 88%
9,Cc1cccc(Cn2c(-c3cccs3)nc3ccccc32)c1,active: 2%
10,CCOc1ccc(Cn2c(CNS(=O)(=O)c3cccs3)nc3cccnc32)cc1,inactive: 99%
11,Cn1c(=O)c2c(nc(SCC(=O)Nc3ccc(F)cc3)n2Cc2ccc(Cl)cc2)n(C)c1=O,active: 31%
12,CN1CCN(Cc2cc3sccc3n2Cc2ccc(F)cc2)CC1,inactive: 102%
13,Cc1ccc(N2CCN(c3cc(C)nc4c(-c5ccc(Cl)cc5)c(C)nn34)CC2C)cc1 (stereo unspecified),inactive: 55%
14,NC(=O)Cn1c(=O)n(-c2ccc(F)c(Cl)c2)c(=O)c2sc3ccccc3c21,inactive: 117%
15,CCc1nc(SCc2cc(=O)c3cc(F)ccc3[nH]2)n[nH]1,inactive: 99%
16,O=C(Nc1nnc(C2CCCCC2)s1)c1ccc2c(c1)OCO2,inactive: 79%
17,CCN(CC)S(=O)(=O)c1ccc(NC(=O)[C@H](CCSC)N2Cc3ccccc3C2=O)cc1,inactive: 65%
18,Cc1ccc(S(=O)(=O)c2nnn3c2nc(N2CCCCC2)c2sccc23)cc1,inactive: 104%
19,CCn1ccc2cc(S(=O)(=O)N3CCCN(C(=O)Nc4ccc(C)cc4)CC3)ccc21,inactive: 73%
20,CCC(=O)Nc1ccc(C(=O)CSc2ncc(C#N)c(N)n2)cc1OC,inactive: 96%
21,Cc1cn2c(=O)c(S(=O)(=O)NC(C)c3ccccc3)c(C)nc2s1 (stereo unspecified),inactive: 68%
22,Cc1ccc(NC(=O)Cn2ncc3c4ccccc4n(Cc4ccccc4)c3c2=O)cc1Cl,inactive: 89%

row,Compound,survival
1,Cc1ccc(C)c2sc(N3CCN(C(=O)c4ccco4)CC3)nc12,inactive: 134%
2,CCOc1ccc(NC(=O)c2ccc3c(c2)c(C)c(C)n3Cc2ccc(F)cc2)cc1,inactive: 92%
3,COc1ccc(S(=O)(=O)NCCc2sc(-c3ccccc3)nc2C)cc1F,inactive: 84%
4,Cc1ccc(Cl)cc1N1CCN(S(=O)(=O)c2ccc(-c3cnc(C4CC4)o3)cc2)CC1,inactive: 69%
5,CC(=O)c1ccc(NC(=O)c2cc(C3CC3)nc3c2c(C)nn3-c2ccc(C)cc2)cc1,active: 46%
6,Cc1nnc(Nc2ccc(C(=O)O)cc2)[nH]c1=O,inactive: 108%
7,COC(=O)c1sccc1S(=O)(=O)N1CCN(c2ccc(C(C)=O)cc2)CC1,inactive: 115%
8,COc1ccc(Cl)cc1NC(=O)Cn1nnc(C(=O)NCc2ccc3c(c2)OCO3)c1N,inactive: 60%
9,Cc1ccc(Cn2c(CN3CCC(C(=O)NCC(C)c4ccccc4)CC3)cc3ccccc32)cc1 (stereo unspecified),inactive: 113%
10,CCOC(=O)c1c(NC(=O)CSc2cn(CCNC(=O)c3c(F)cccc3F)c3ccccc23)sc2c1CCCC2,inactive: 92%
11,CCOCCc1nn2c(=O)cc(COC(=O)c3cccc(C)c3)nc2s1,active: -5%
12,Cc1ccc(-c2cc(C(=O)Nc3c(C(=O)c4ccc(C)c(F)c4)oc4ccccc34)no2)cc1,inactive: 90%
13,Cc1ccc(C)c(N2CCN(C(=O)C3CCCN(S(=O)(=O)c4cccc5nonc45)C3)CC2)c1 (stereo unspecified),inactive: 76%
14,Cc1cc(C)c(NC(=O)CN(C)S(=O)(=O)c2ccc3c(c2)c(=O)n(C)c(=O)n3C)c(C)c1,inactive: 81%
15,CCC1=C(c2ccc(C)cc2)S(=O)(=O)N=C1N1CCC(C(=O)NCc2ccc(C)cc2)CC1,inactive: 66%
16,Cc1ccc(C(=O)/C=C/c2cn(CC(O)CN3CCCCCC3)c3ccccc23)cc1 (stereo unspecified),active: 12%
17,Cc1ccc(NC(=O)CSc2nccn2Cc2ccc3c(c2)OCO3)c(C)c1,inactive: 86%
18,CCOC(=O)c1ccc2nc(C)c(CC)c(Cl)c2c1,inactive: 73%
19,CCC(C)NC(=O)CCC(=O)NNc1nc2ccccc2c2nc(C)nn12 (stereo unspecified),inactive: 128%
20,COc1cc(NS(=O)(=O)c2ccc(NC(=O)c3ccc(OC)c(Br)c3)cc2)nc(OC)n1,inactive: 90%
21,CCc1ccc(S(=O)(=O)n2ccnc2)cc1,inactive: 95%
22,COCCn1c(=NC(=O)c2ccc3c(c2)OCCO3)sc2cc(NC(C)=O)ccc21,inactive: 94%

row,Compound,survival
1,Cc1ccc(-c2nn3c(=O)cc(CN4CCN(C(=O)c5ccc(C(C)(C)C)cc5)CC4)nc3s2)cc1,inactive: 67%
2,O=C(Nc1ccc(F)cc1F)N1CCc2c(sc3c2CCCC3)C1c1ccc(F)cc1 (stereo unspecified),inactive: 93%
3,Cc1ccc(C(C(=O)NC2CCCC2)N(C(=O)Cn2nnc3ccccc32)c2cnc3ccccc3c2)o1 (stereo unspecified),inactive: 104%
4,COc1ccc(C(=O)N2CCN(C(=O)COc3ccc(C)cc3)CC2)cc1OC,inactive: 78%
5,CC(C)c1ccc(NC(=O)CN2C(=O)CCc3cc(S(=O)(=O)N4CCOCC4)ccc32)cc1,inactive: 87%
6,CC(C)c1ccc(NC(=O)c2ccc(F)c(S(=O)(=O)N3CCN(c4ccccc4F)CC3)c2)cc1,inactive: 115%
7,O=C(Cn1cc(S(=O)(=O)N2CCN(c3ccccc3F)CC2)c2ccccc2c1=O)Nc1ccc(F)cc1Cl,inactive: 120%
8,COc1cc2c(C(=O)N3CCN(c4cc(Cl)ccc4C)CC3)cn(CC(C)C)c(=O)c2cc1OC,active: 40%
9,CN(C(=O)CSc1nnc2c3ccccc3n(C)c2n1)C1CCCCC1,inactive: 52%
10,CCCOc1ccc(-c2cccc(NS(=O)(=O)c3ccc(CC)cc3)c2)nn1,inactive: 94%
11,COc1ccc(NC(=O)CN2CCN(c3ccccc3F)CC2)c(OC)c1,inactive: 73%
12,Cc1cc(SCC(=O)Nc2nsc(-c3ccc(C(C)(C)C)cc3)n2)nc2ccccc12,active: 13%
13,COc1cccc(N2CCN(C(=O)c3c4c(nc5ccccc35)C(=O)N(C3CCCCC3)C4)CC2)c1,inactive: 98%
14,COc1cccc(NC(=O)C2CCCN2S(=O)(=O)c2ccc3nc(-c4ccccc4)[nH]c3c2)c1 (stereo unspecified),active: 44%
15,COc1ccc(OCc2nc(C#N)c(NCc3ccccc3Cl)o2)cc1,inactive: 80%
16,CN(C)CCSc1nnc(-c2ccccc2)o1,inactive: 77%
17,COc1ccccc1OCC(=O)N/N=C1/SCC(=O)N1Cc1ccccc1,inactive: 78%
18,COc1cc(Cl)c(C)cc1Nc1nnc(-n2nc(C)cc2C)c2ccccc12,inactive: 107%
19,COc1ccc(-c2nc3sc(CCNS(=O)(=O)c4c(C)cc(C)cc4C)c(C)n3n2)cc1,active: -1%
20,CCc1cccc(NC(=O)C(Cc2ccccc2)NS(=O)(=O)c2ccc3c(c2)c(=O)n(C)c(=O)n3C)c1 (stereo unspecified),inactive: 54%
21,Cc1onc(-c2ccccc2)c1C(=O)N1CCOCC1,inactive: 77%
22,CC(=O)N1c2ccc(S(=O)(=O)NCC3CCC(C(=O)Nc4cc(C)cc(C)c4)CC3)cc2CC1C (stereo unspecified),inactive: 101%

row,Compound,survival
1,Cc1ccc(C)c(S(=O)(=O)n2nc(C)c(S(=O)(=O)N3CCC(C)CC3)c2C)c1,inactive: 83%
2,Cc1ccc(-n2nc3c(N4CCC(C(=O)N(C)Cc5ccccc5)CC4)nnc(C)c3c2C)cc1,inactive: 69%
3,O=C(NCCN1CCCCC1)c1ccc(Cn2c(SCc3ccc(F)cc3)nc3cccnc32)cc1,inactive: 113%
4,CN(C)c1ccc(CN(Cc2ccco2)C(=O)c2ccc(F)cc2)cc1,inactive: 68%
5,Cc1ccc(-n2cnc3ccccc3c2=O)cc1C,inactive: 80%
6,CC(=O)Nc1cccc(NC(=O)Cc2csc(COc3cccc(C)c3)n2)c1,inactive: 89%
7,CCOC(=O)N1CCc2c(sc3c2c(=O)n(-c2ccc(CC)cc2)c(=O)n3Cc2cccc(OC)c2)C1,inactive: 75%
8,COc1ccccc1N1CCN(S(=O)(=O)c2ccc(-n3cnnn3)cc2)CC1,inactive: 75%
9,CCOc1ccc(C(=O)Nc2ccc3c(c2)N(C(C)=O)CCC3)cc1OCC,inactive: 69%
10,CCOc1ccc(C2c3c(oc4cc(C)c(C)cc4c3=O)C(=O)N2c2ccccn2)cc1 (stereo unspecified),inactive: 78%
11,CCC(C(=O)Nc1cc(C)ccc1OC)n1nnc(C(=O)OC)c1C(=O)OC (stereo unspecified),inactive: 94%
12,COc1ccc(NS(=O)(=O)c2ccc3c(c2)NC(=O)CCS3)c(OC)c1,inactive: 76%
13,CCc1ccccc1N1C(=O)N(CC(=O)c2ccc(Cl)cc2)c2ccccc2S1(=O)=O,inactive: 82%
14,COC(=O)c1c(SC)nc2ccccc2c1OCc1ccc(C)cc1,inactive: 102%
15,CCOc1ccc(C2=C(C(=O)CC)Sc3nncn3N2C(=O)CC)cc1,active: 17%
16,COc1ccc(Nc2cc(C(=O)NCc3cccs3)c3ccccc3n2)cc1,inactive: 131%
17,O=C(CSc1ncc(-c2ccccc2)[nH]1)Nc1ccc(F)cc1F,inactive: 59%
18,CCCCOC(=O)Cn1nnc2sc(-c3ccccc3)cc2c1=O,inactive: 71%
19,CN1CCN(C(=O)C(=O)Nc2c3c(nn2-c2cccc(Cl)c2)CSC3)CC1,inactive: 76%
20,COc1ccc(CCNC(=O)CSc2cn(CCNC(=O)c3ccccc3F)c3ccccc23)cc1OC,inactive: 137%
